According to the antibiotic and cytotoxicity screens of Wong et al. (2023):
The other results are listed elsewhere or left out.

Legend:
[1] = tested on: HSkMC (human skeletal muscle cells); experiment: cytotoxicity call (relative viability < 0.9); settings: 10 µM
[2] = tested on: HepG2; experiment: cytotoxicity call (relative viability < 0.9); settings: 10 µM
[3] = tested on: S. aureus RN4220; experiment: growth inhibition call (relative growth <= 0.2); settings: 50 µM

Compound | cytotoxicity call [1] | cytotoxicity call [2] | growth inhibition call [3]
CCS(=O)(=O)N1CC[C@]2(CC1)CN([C@H](CO)c1c2c2ccc(cc2n1C)OC)C(=O)Nc1c(noc1C)C | inactive | inactive | inactive
C[C@@H]1CN([C@H](C)CO)C(=O)Cc2cc(NS(=O)(=O)c3ccc(F)cc3)ccc2O[C@@H]1CN(C)Cc1ccc(Cl)c(Cl)c1 | active | active | inactive
C[C@@H]1CCCCO[C@@H](CN(C)C(=O)NC2CCCCC2)[C@@H](C)CN([C@H](C)CO)C(=O)c2cc(NC(=O)Nc3cccc4ccccc34)ccc2O1 | inactive | inactive | inactive
CC1(C)CCC(CN2CCN(c3ccc(C(=O)NS(=O)(=O)c4ccc(NCC5CCOCC5)c([N+](=O)[O-])c4)c(Oc4cnc5[nH]ccc5c4)c3)CC2)=C(c2ccc(Cl)cc2)C1 | inactive | inactive | inactive
C[C@@H]1CN([C@@H](C)CO)C(=O)c2cc(NS(=O)(=O)c3ccc(F)cc3)ccc2O[C@@H](C)CCCCO[C@@H]1CN(C)Cc1ccc2c(c1)OCO2 | inactive | inactive | inactive
Cc1ccc(S(=O)(=O)N2C[C@H](O)COC[C@H]3O[C@@H](CC(=O)N[C@@H]4CCN(Cc5ccccc5)C4)CC[C@@H]32)cc1 | inactive | inactive | inactive
C[C@H]1CN([C@@H](C)CO)C(=O)c2cc(NC(=O)Cc3cn(C)c4ccccc34)ccc2O[C@@H]1CN(C)C(=O)Nc1ccc(C(F)(F)F)cc1 | inactive | active | inactive
CC(C)NC(=O)N(C)C[C@H]1OCc2cnnn2CCCC(=O)N([C@@H](C)CO)C[C@@H]1C | inactive | inactive | inactive
C=c1ccc(S(=O)(=O)N2CCCC2)cc1=C1NN=C2c3ccccc3C(C)=NN21 | inactive | inactive | inactive
C[C@H](CO)N1C[C@H](C)[C@@H](CN(C)Cc2ccc(-c3ccccc3)cc2)Oc2ccc(NC(=O)C3CC3)cc2C1=O | inactive | inactive | inactive
O=C(O)[C@H]1C[C@@H]2C[C@H]1CC[C@@H]2O | inactive | inactive | inactive
COc1ccc(S(=O)(=O)Nc2ccc3c(c2)C(=O)N([C@H](C)CO)C[C@H](C)[C@H](CN(C)S(C)(=O)=O)O3)cc1 | inactive | inactive | inactive
C[C@@H]1CCCCO[C@@H](CN(C)C(=O)Cc2ccccc2)[C@H](C)CN([C@H](C)CO)C(=O)c2cc(NS(=O)(=O)c3ccc(Cl)cc3)ccc2O1 | inactive | inactive | inactive
CN(C)C(=O)N1CC2(CCN(S(=O)(=O)N(C)C)CC2)[C@]2(CCN(C)C2=O)C1 | inactive | inactive | inactive
CC1=C(C(=O)O)N2C(=O)[C@@H](NC(=O)[C@@H](N)c3ccc(O)cc3)[C@H]2SC1 | inactive | inactive | inactive
COc1ccc(S(=O)(=O)N(C)C[C@H]2Oc3ccc(NS(=O)(=O)c4c(C)noc4C)cc3CC(=O)N([C@@H](C)CO)C[C@H]2C)cc1 | inactive | inactive | inactive
COC(=O)[C@H](Cc1ccc(-n2cc(CCC(=O)NO)nn2)cc1)N1CC2=C[C@H]([C@@H](O)Cc3ccccc3)n3c(=O)n(C)c(=O)n3[C@@H]2[C@@H](C2CC2)O1 | inactive | inactive | inactive
C[C@H](NC(=O)C[C@H]1C=C[C@@H](NC(=O)CN2CCOCC2)[C@@H](CO)O1)c1ccccc1 | inactive | inactive | inactive
Cc1ccc(S(=O)(=O)Nc2ccc3c(c2)C(=O)N([C@@H](C)CO)C[C@H](C)[C@H](CN(C)S(=O)(=O)c2ccccc2)O3)cc1 | inactive | inactive | inactive
CN(C)C(=O)c1cccc(-c2cccc(-c3nc(C(=O)N4CCCCC4)cc4c3[C@@H](CCO)N([S@](=O)C(C)(C)C)C4)c2)c1 | inactive | inactive | inactive
COc1ccc2c3c([nH]c2c1)[C@H](CO)N(C[C@]13CCN(CC1)Cc1ccccc1F)S(=O)(=O)c1cn(cn1)C | inactive | inactive | inactive
C[C@H](CO)N1C[C@H](C)[C@@H](CN(C)C(=O)Nc2ccc(C(F)(F)F)cc2)OCCCC[C@H](C)Oc2ccc(NC(=O)Nc3ccc4c(c3)OCO4)cc2C1=O | inactive | inactive | inactive
COc1ccc2c3c([nH]c2c1)[C@@H](CO)N(CC1CCCCC1)C[C@]13CN(C1)C(=O)Nc1cccc(c1)F | inactive | inactive | inactive
CCCNc1nc(Nc2ccc(C#N)cc2)ncc1C#CCCCNC(=O)[C@H](C)N(C)C(=O)/C=C/CN(C)C | active | active | inactive
CCCC(=O)Nc1ccc2c(c1)OC[C@@H](C)N(C(=O)CN1CCOCC1)C[C@@H](C)[C@H](OC)CN(C)C2=O | inactive | inactive | inactive
C[C@H]1CN([C@@H](C)CO)C(=O)Cc2cc(NS(=O)(=O)c3cn(C)cn3)ccc2O[C@H]1CN(C)Cc1ccccc1 | inactive | inactive | inactive
COC(=O)CCCCCCC(=O)N/N=C/[C@@H](O)[C@H](O)[C@H](O)CO | inactive | inactive | inactive

Compound | cytotoxicity call [1] | cytotoxicity call [2] | growth inhibition call [3]
Nc1ccn([C@@H]2CS[C@H](CO)O2)c(=O)n1 | inactive | inactive | inactive
COc1ccc(NC(=O)Nc2ccc3c(c2)C(=O)N([C@H](C)CO)C[C@H](C)[C@H](CN(C)S(=O)(=O)c2c(C)noc2C)OCCCC[C@H](C)O3)cc1 | inactive | inactive | inactive
C[C@@H]1CN([C@@H](C)CO)C(=O)c2cc(NC(=O)Nc3ccc(F)cc3)ccc2O[C@@H]1CN(C)S(=O)(=O)c1cn(C)cn1 | inactive | inactive | inactive
COc1ccc(NC(=O)Nc2ccc3c(c2)C(=O)N([C@H](C)CO)C[C@H](C)[C@@H](CN(C)C(=O)Nc2ccc(C(F)(F)F)cc2)OCCCC[C@@H](C)O3)cc1 | inactive | inactive | inactive
C[C@@H]1CCCCO[C@H](CN(C)S(=O)(=O)c2ccc(F)cc2)[C@H](C)CN([C@H](C)CO)C(=O)c2cc(NC(=O)C3CCCCC3)ccc2O1 | inactive | inactive | inactive
CCOC(=O)/C(=N/O)C1=NNC(=N)SC1 | inactive | inactive | inactive
COc1ccc(S(=O)(=O)N(C)C[C@H]2Oc3ccc(NC(=O)c4ccncc4)cc3C(=O)N([C@H](C)CO)C[C@@H]2C)cc1 | inactive | inactive | inactive
C[C@H](CO)N1C[C@H](C)[C@H](CN(C)Cc2ccc(-c3ccccc3)cc2)Oc2c(NC(=O)Nc3cccc4ccccc34)cccc2C1=O | inactive | inactive | inactive
COc1ccc(NC(=O)Nc2ccc3c(c2)CC(=O)N([C@@H](C)CO)C[C@H](C)[C@H](CN(C)Cc2ccc(Cl)c(Cl)c2)O3)cc1 | active | active | inactive
Cl.NCCCC(N)(C(=O)O)C(F)F.O (configuration not stated) | inactive | inactive | inactive
C[C@@H]1CN([C@@H](C)CO)C(=O)c2cc(NC(=O)Nc3ccc(C(F)(F)F)cc3)ccc2O[C@@H]1CN(C)Cc1ccc(C(=O)Nc2ccccc2N)cc1 | inactive | active | inactive
C[C@@H]1CCCCO[C@@H](CN(C)Cc2ccc(C(F)(F)F)cc2)[C@@H](C)CN([C@H](C)CO)C(=O)c2cc(NC(=O)c3ccccc3)ccc2O1 | inactive | inactive | inactive
C[C@@H]1CN([C@@H](C)CO)S(=O)(=O)c2ccc(C#CCN(C)C)cc2O[C@@H]1CN(C)C(=O)CN(C)C | inactive | inactive | inactive
Cc1noc(C)c1NC(=O)N(C)C[C@H]1Oc2ccc(NS(C)(=O)=O)cc2CC(=O)N([C@@H](C)CO)C[C@H]1C | inactive | inactive | inactive
COc1ccccc1OCCNCC(O)COc1cccc2[nH]c3ccccc3c12 (configuration not stated) | inactive | active | inactive
C[C@@H]1CN([C@H](C)CO)C(=O)c2cc(NC(=O)Cc3ccccc3)ccc2O[C@@H](C)CCCCO[C@H]1CN(C)C(=O)Nc1ccc(F)cc1 | inactive | inactive | inactive
COc1ccc2c(c1)[C@]1(C[C@H]1c1ccc3c(/C=C/c4ccc(CN5C[C@@H](C)O[C@@H](C)C5)cc4)[nH]nc3c1)C(=O)N2 | inactive | inactive | inactive
C[C@@H]1CN([C@@H](C)CO)C(=O)c2cc(NS(=O)(=O)c3ccc(F)cc3)ccc2O[C@@H](C)CCCCO[C@H]1CN(C)Cc1ccc(C(F)(F)F)cc1 | inactive | inactive | inactive
C/C=C/c1ccc2c(c1)O[C@H](CN(C)S(=O)(=O)c1ccccc1)[C@@H](C)CN([C@H](C)CO)S2(=O)=O | inactive | inactive | inactive
COc1ccc(CN(C)C[C@H]2OCCCC[C@H](C)Oc3ccc(NC(=O)Nc4ccc(F)cc4)cc3C(=O)N([C@H](C)CO)C[C@H]2C)cc1 | inactive | active | inactive
C[C@H]1CCCCO[C@@H](CN(C)Cc2ccccc2)[C@@H](C)CN([C@@H](C)CO)C(=O)c2cc(NS(=O)(=O)c3ccc(F)cc3)ccc2O1 | inactive | inactive | inactive
O=C(C[C@@H]1CC[C@@H]2[C@H](COC[C@@H](O)CN2C(=O)Nc2ccc(C(F)(F)F)cc2)O1)NCCc1ccncc1 | inactive | inactive | active
CC(=O)OCC(=O)C1(O)CCC2C3CCC4=CC(=O)C=CC4(C)C3(F)C(O)CC21C (configuration not stated) | inactive | inactive | inactive
C[C@H](CO)N1C[C@H](C)[C@H](CN(C)S(=O)(=O)c2ccc(Cl)cc2)OCc2cnnn2CCCC1=O | inactive | inactive | inactive
C[C@@H]1CN([C@H](C)CO)C(=O)c2cccc(NC(=O)C3CC3)c2O[C@H]1CN(C)Cc1ccc2c(c1)OCO2 | inactive | inactive | inactive
CN(C)C(=O)C[C@@H]1CC[C@H](NC(=O)C2CCOCC2)[C@@H](CO)O1 | inactive | inactive | inactive
Cc1ccc(S(=O)(=O)Nc2ccc3c(c2)C(=O)N([C@@H](C)CO)C[C@@H](C)[C@H](CN(C)C(=O)CCC(F)(F)F)OCCCC[C@@H](C)O3)cc1 | inactive | inactive | inactive
